Test results reported in PMC6940534 (Journal of thrombosis and haemostasis : JTH, 2019).

Molecular target: Wild type GPIbα (amino acids H1 - E285) (UniProt P07359 17-301)
Assay: SPR

UniProt P07359, sequence (P07359 17-301): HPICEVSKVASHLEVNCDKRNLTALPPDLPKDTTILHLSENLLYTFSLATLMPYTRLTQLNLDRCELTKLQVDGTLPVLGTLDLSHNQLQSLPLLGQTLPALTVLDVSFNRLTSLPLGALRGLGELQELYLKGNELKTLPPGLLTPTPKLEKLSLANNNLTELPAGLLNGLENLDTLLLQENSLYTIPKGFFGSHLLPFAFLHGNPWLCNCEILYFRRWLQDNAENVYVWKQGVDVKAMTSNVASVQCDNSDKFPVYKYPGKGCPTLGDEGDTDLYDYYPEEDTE

- Kd: 3.9 ± 0.1 µM
B1: wild-type nonglycosylated A1 domain of VWF ([…]) (domain or fragment)
chain: not shown
